In all, about 410,000 compounds went through this assay and about 530 (0.13%) were called active. This list was built around the results that the source calls inconclusive (neither active nor inactive); the mix of calls is not that of the screen. Calls follow the shape of the dose curve; as a rule, active = well fitted inhibition curve with a large enough effect; inconclusive = small, poorly fitted or top-dose-only effect, or another doubt; inactive = no such curve, though single readings can be large or run the other way. Potencies beside an inconclusive call are fits to weak or partial responses and may not hold up.
Assay: qHTS of GLP-1 Receptor Inverse Agonists: Cytotox Screen
Conditions: HEK293 cAMP-luciferase reporter cells, luminescence, 24 h; series mostly up to 38.3 µM
Outline: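 MLSMR compounds, 24 hr on cells at 37 deg C/5% CO2; luminescence after luciferase reagent (12 min RT). Inhibition counted as the undesired cytotoxic outcome.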
Potency is read from the fitted curve at half-maximal effect.

Structure (SMILES) | Potency
C/C(CC(=O)Nc1ccccc1[N+](=O)[O-])=N\NC(=O)COc1ccccc1C | inconclusive: 3.55 µM [inhibitor, full curve]
O=C(COc1cccc2cccnc12)N/N=C/c1cccn1-c1ccc(F)cc1 | inconclusive: 28.2 µM [inhibitor, single point]
C/C(=N\N=c1/sc2ccccc2n1C)c1ccccn1 | inconclusive: 28.2 µM [inhibitor, single point]
CCCCN(CC)c1nc(-c2ccncc2)nc2ccccc12 | inconclusive: 20 µM [inhibitor, single point]
CCN(CC)CCN(C(=O)c1cccc(N2C(=O)CCC2=O)c1)c1nc2cc3c(cc2s1)OCO3 | inactive
COc1cccc(N2CCN(C(=O)c3[nH]c(C)c(C(C)=O)c3C)CC2)c1 | inconclusive: 2.82 µM [inhibitor, partial curve, poor fit]
Brc1ccc(-c2noc3c2-c2nc(-c4ccccc4)sc2CC3)cc1 | inconclusive: 31.6 µM [inhibitor, single point]
CC1CCCCC1NC(=S)NC(=O)c1cccs1 (stereo unspecified) | inconclusive: 10 µM [inhibitor, partial curve]
CSc1nc(N(C)NC(=O)c2ccccc2)c2ccccc2n1 | inconclusive: 0.794 µM [inhibitor, full curve, poor fit]
O=C1S/C(=C\c2ccc(O)c([N+](=O)[O-])c2)C(=O)N1c1ccccc1Cl | inconclusive: 10 µM [inhibitor, single point]
[N-]=[N+]=CC(=O)CNC(=O)[C@@H](Cc1ccccc1)N1C(=O)c2ccccc2C1=O | inconclusive: 11.2 µM [inhibitor, partial curve, poor fit]
Cc1ccc(N2CCN(C(=O)C3CCC(CNS(=O)(=O)c4ccc(Br)s4)CC3)CC2C)cc1 (stereo unspecified) | inactive
Cc1ccc(NC(=O)Cn2c(=O)c(C(F)(F)F)nc3ccccc32)c(C)c1 | inactive
COC(=O)C1=C(C)N(Cc2ccccc2)C(=S)N[C@H]1c1ccc(Br)cc1 | inconclusive: 31.6 µM [inhibitor, single point]
Cc1cccc(/C=C2/Sc3ccc(C(=O)NCCN4CCCC4)cc3NC2=O)c1 | inconclusive: 28.2 µM [inhibitor, single point]
CC(C)(C)c1ccc(C(=O)N2CC(=O)Nc3ccc(F)cc3C2c2ccc(F)cc2)cc1 (stereo unspecified) | inactive
Cc1ccc(-c2csc(NC3OC(=O)c4ccccc43)n2)cc1 (stereo unspecified) | inconclusive: 28.2 µM [inhibitor, single point]
C[C@H](CO)N1C[C@H](C)[C@@H](CN(C)CC2CCCCC2)Oc2c(NS(=O)(=O)c3ccc(F)cc3)cccc2C1=O | inconclusive: 0.501 µM [inhibitor, full curve]
CCOC(=O)CC(NC(=O)c1ccc(C)cc1)c1ccc(C)cc1 (stereo unspecified) | inconclusive: 12.6 µM [inhibitor, partial curve, poor fit]
COc1cnc(-c2ccccn2)nc1N(C)c1ccccc1 | inconclusive: 2.51 µM [inhibitor, full curve]
Cc1cc2nc(-c3ccc(SCc4ccc(C#N)cc4)nc3)[nH]c2cc1C | inconclusive: 10 µM [inhibitor, single point]
Cc1cccc(NC(=S)NCc2ccccc2)c1C | inconclusive: 7.94 µM [inhibitor, single point]

Structure (SMILES) | Potency
O=C(Nc1ccc(Cl)c([N+](=O)[O-])c1)C(Sc1ccccc1)c1ccccc1 (stereo unspecified) | inconclusive: 11.2 µM [inhibitor, single point]
CC1=NN(c2ccccc2)C(=O)C1N=Nc1ccccc1 (stereo unspecified) | inconclusive: 2.51 µM [inhibitor, full curve, poor fit]
Cc1nn2c(C(F)(F)F)cc(-c3ccc(OC(C)C)cc3)nc2c1C#N | inactive
CCSc1nnc(NC(=O)COc2ccccc2)s1 | inconclusive: 0.501 µM [inhibitor, full curve, poor fit]
O=C(Nc1nccs1)c1cc2c(s1)CCCCC2 | inconclusive: 11.2 µM [inhibitor, single point]
Cc1ccc2[nH]c3c(N4CCc5ccccc5C4)ncnc3c2c1 | inconclusive: 20 µM [inhibitor, single point]
CC(C)Nc1nc(NCCOc2ccccc2)c2sccc2n1 | inconclusive: 14.1 µM [inhibitor, single point]
C(=N\NC1=Nc2cccc3cccc1c23)/c1cccnc1 | inconclusive: 22.4 µM [inhibitor, single point]
COC(=O)C1=CN(c2ccc(OC)cc2OC)C(N)=C(C#N)C1c1cccc([N+](=O)[O-])c1 (stereo unspecified) | inconclusive: 1.41 µM [inhibitor, full curve, poor fit]
COc1cc(OC)c2c(C)cc(=O)oc2c1C(CCN1CCN(c2ccccc2)CC1)c1ccc2c(c1)OCO2 (stereo unspecified) | inconclusive: 3.98 µM [inhibitor, full curve, poor fit]
Cc1cc(-c2ccccc2)nc(N/N=C/c2ccccc2F)n1 | inconclusive: 28.2 µM [inhibitor, single point]
COc1cc(OC)cc(C(=O)N/N=C/c2ccc(OC)c(COc3ccc4ccccc4c3)c2)c1 | inconclusive: 11.2 µM [inhibitor, partial curve, poor fit]
CC(C)(C)c1cc(C(=O)CCN2CCOCC2)cc(C(C)(C)C)c1O | inconclusive: 28.2 µM [inhibitor, single point]
S=C1NCN(Cc2ccco2)CN1 | inactive
CCc1ccc(C(=O)c2cnc3ccc(C)cc3c2S(=O)(=O)c2ccc(OC)cc2)cc1 | inactive
C=CCN1C=C/C(=C\C=C(C#N)C#N)c2ccccc21 | inconclusive: 17.8 µM [inhibitor, partial curve, poor fit]
O=C(N/N=C/c1cnc(N2CCCCC2)s1)c1ccc(Cl)cc1 | inactive
CCCN(CC1CC1)c1nc(C)nc(Nc2c(Cl)cc(Cl)cc2Cl)c1Cl | inactive
CCOC(=O)c1nc(N2CCN(C(=O)OCC)CC2)c2c3c(sc2n1)CCCC3 | inconclusive: 10 µM [inhibitor, single point]
Cc1csc(NC(=O)c2cc3c(C)nn(Cc4ccccc4Cl)c3s2)n1 | inconclusive: 11.2 µM [inhibitor, single point]
O=C(COc1ccc(F)cc1)NCCNC(=O)COc1ccc(F)cc1 | inactive
O=C(Nc1cccc(Cl)c1)c1ccc2nc(Cc3ccccc3)oc2c1 | inconclusive: 28.2 µM [inhibitor, single point]

Structure (SMILES) | Potency
COc1ccc(NC(=O)c2cc(CN3C(=O)c4ccccc4C3=O)ccc2OC)cn1 | inconclusive: 28.2 µM [inhibitor, single point]
CN(C)N=Nc1nc2c([nH]1)c(=O)n(C)c(=O)n2C | inconclusive: 28.2 µM [inhibitor, single point]
Oc1c(Cl)cc(CN2CCOCC2)c2cccnc12 | inconclusive: 0.501 µM [inhibitor, full curve, poor fit]
O=C(CSc1nc2ncc(Cl)cc2[nH]1)Nc1cccc(F)c1 | inconclusive: 10 µM [inhibitor, partial curve, poor fit]
CCOc1cc(-c2c(C#N)c(=O)[nH]c3c2c(C)nn3-c2ccc(F)cc2)ccc1O | inactive
COc1ccc(CCC(=O)NNC(=O)c2ccc(F)cc2)cc1 | inconclusive: 10 µM [inhibitor, single point]
Cc1ccc2cc(C#N)c(NCCNC(=S)NCCCN(C)C)nc2c1C | inactive
CCOc1ccc(NS(=O)(=O)c2cc(NC(=O)c3ccc(C)cc3)ccc2Cl)cc1 | inconclusive: 7.08 µM [inhibitor, partial curve, poor fit]
CN1CCN(Cc2cc(Cl)c3cccnc3c2OC(=O)c2cccs2)CC1 | inconclusive: 2 µM [inhibitor, full curve, poor fit]
Cc1ccc(NC(=O)c2ncn(CCCNCCCc3ccccc3)n2)cc1C | inactive
CCn1cc(CN2CCC(C(=O)Nc3cccc(-c4cccc(Cl)c4)c3)CC2)cn1 | inconclusive: 14.1 µM [inhibitor, partial curve, poor fit]
Cc1cccc(Nc2nnc(SCC(=O)Nc3ccccc3[N+](=O)[O-])s2)c1 | inactive
Cc1cc(Cl)ccc1OC(C)C(=O)N1CCCN(C(=O)C(C)Oc2ccc(Cl)cc2C)CC1 (stereo unspecified) | inconclusive: 12.6 µM [inhibitor, partial curve]
S=C(NCc1ccco1)N/N=C/c1ccc(Cl)cc1 | inconclusive: 31.6 µM [inhibitor, single point]
COc1ccccc1C(CNC(=O)c1ccc(-c2ccccc2Cl)o1)N1CCCC1 (stereo unspecified) | inconclusive: 5.01 µM [inhibitor, partial curve]
NC(=S)N/N=C\c1c(OCc2ccccc2Cl)ccc2ccccc12 | inconclusive: 0.891 µM [inhibitor, full curve, poor fit]
N/C(Cc1ccccc1)=N\OC(=O)c1cccc2ccccc12 | active: 10 µM
CSc1ncc(C(=O)Nc2ccccc2C(=O)c2ccccc2)c(C)n1 | inactive
COc1ccc(-c2cc(C#N)nc(Cl)n2)cc1 | inconclusive: 4.47 µM [inhibitor, partial curve]
Cc1ccc(C(=O)Nc2ccc(C(=O)/C=C/c3cccs3)cc2)cc1 | inconclusive: 11.2 µM [inhibitor, single point]
Cc1ccc(S(=O)(=O)N2CCCC2CNC(=O)C(=O)Nc2ccc(F)cc2F)cc1 (stereo unspecified) | inconclusive: 15.8 µM [inhibitor, single point]
O=C(CCc1ccccc1)NC(=S)Nc1cccc(Br)c1 | inconclusive: 28.2 µM [inhibitor, single point]

Source: PubChem BioAssay AID624418 (National Center for Advancing Translational Sciences (NCATS), 2012)
